According to PubChem BioAssay AID360 (National Center for Advancing Translational Sciences (NCATS), 2006):
The whole screen tested about 48,000 compounds, of which about 550 (1.1%) were called active. Inconclusive results (about 4%) are left out. Rule as the data show it: active = potency below about 15 µM; inconclusive = mostly about 16 µM to 33 µM; inactive = weaker than that. The list shows a part of the results.

These compounds were tested against Lysosomal acid glucosylceramidase (Homo sapiens) (UniProt P04062) (assay: Glucocerebrosidase). Settings: purified enzyme, resorufin glucoside fluorescence (screen aimed at inhibitors), 20 min.
Method in brief: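 Normal human glucocerebrosidase (0.2 nM final) was assayed with resorufin β-D-glucopyranoside (30 uM final) in 50mM citric acid/KH2PO4, 10mM sodium taurocholate, 0.01% tween-20, pH 5.9. Compounds were titrated; fluorescence (Ex 548, Em 600) read after 20 min at RT.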
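Also: the screen sought inhibitors.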
Potency is read from the fitted curve at half-maximal effect.

Chain of UniProt P04062 (P04062 whole entry, looked up): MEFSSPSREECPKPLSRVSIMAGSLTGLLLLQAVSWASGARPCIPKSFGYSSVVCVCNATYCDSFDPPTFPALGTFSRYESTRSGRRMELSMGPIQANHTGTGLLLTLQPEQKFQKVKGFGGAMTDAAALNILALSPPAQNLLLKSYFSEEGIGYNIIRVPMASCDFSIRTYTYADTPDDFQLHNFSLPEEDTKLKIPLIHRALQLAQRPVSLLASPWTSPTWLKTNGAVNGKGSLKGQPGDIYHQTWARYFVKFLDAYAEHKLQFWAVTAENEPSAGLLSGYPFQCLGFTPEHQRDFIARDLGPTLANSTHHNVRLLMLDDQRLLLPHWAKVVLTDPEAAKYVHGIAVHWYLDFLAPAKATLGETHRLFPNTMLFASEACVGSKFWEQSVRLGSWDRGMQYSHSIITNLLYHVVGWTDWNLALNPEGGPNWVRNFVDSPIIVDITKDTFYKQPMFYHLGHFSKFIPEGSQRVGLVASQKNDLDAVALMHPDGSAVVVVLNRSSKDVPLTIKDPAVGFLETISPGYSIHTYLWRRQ

Potency, inactive:
CC(C(=O)Nc1cccnc1)N1C(=O)c2ccccc2C1=O (configuration not stated) > 76.9 µM, C=CCn1c(N)c(C(=O)NCC2CCCO2)c2nc3ccccc3nc21 (configuration not stated) > 76.9 µM, CCS(=O)(=O)N1Cc2ccccc2CC1C(=O)N1CCN(c2ccccc2)CC1 (configuration not stated) > 76.9 µM, C=CCN1C(=O)/C(=C2/Sc3ccccc3N2C)SC1=Nc1c(C)n[nH]c1C > 76.9 µM, O=C(COC(=O)Cc1ccsc1)NC1CCCCCC1 > 76.9 µM, COc1ccc(N2C(=O)CCC(C(=O)N3CCCCCC3)C2c2ccc(OC)c(OC)c2)cc1 (configuration not stated) > 76.9 µM, CCOC(=O)c1cccnc1SCc1cc(=O)n2ccccc2n1 > 76.9 µM, O=C(NCc1cccs1)C1CC(=O)N(c2ccccc2)C1 (configuration not stated) > 76.9 µM, CC1(C)CC(=O)c2cnc(NCC3CCCO3)nc2C1 (configuration not stated) > 76.9 µM, Cc1cc(NC(=O)c2cccc(S(=O)(=O)N3CCOCC3)c2)c2ccccc2n1 > 76.9 µM, CC(=O)N1CCc2cc(S(=O)(=O)CCC(=O)Nc3c(C)n(C)n(-c4ccccc4)c3=O)ccc21 > 76.9 µM, Cc1oc2nc(SCC(=O)NCc3cccnc3)nc(N)c2c1C > 76.9 µM, CCCn1c(SCC(=O)Nc2nonc2C)nnc1-c1ccoc1C > 76.9 µM, COc1ccc(C(c2nnnn2Cc2cccs2)N2CCN(c3ccccc3F)CC2)cc1OC (configuration not stated) > 76.9 µM, COCC(C)n1c(C)cc(C(=O)COC(=O)c2ccc3ncsc3c2)c1C (configuration not stated) > 76.9 µM, CC(=O)N1c2c(cc(Br)cc2S(=O)(=O)NCc2ccc3c(c2)OCO3)CC1C (configuration not stated) > 76.9 µM, O=C(CN1CCOCCOCCN(CC(=O)Nc2ccccc2)CCOCC1)Nc1ccccc1 > 76.9 µM, N#CC(C(N)=O)=C1CCC2(CC1)OCCCCO2 > 76.9 µM, N#Cc1nc(-c2cccc3ccccc23)oc1N1CCCCC1 > 76.9 µM, c1csc(-c2nn3c(Cn4nnc5ccccc54)nnc3s2)c1 > 76.9 µM, CCCN(CC1CC1)C(=O)Nc1ccccc1C > 76.9 µM, COc1ccc(C2(C(=O)NCC3CCCO3)CCOCC2)cc1 (configuration not stated) > 76.9 µM, CC(C)(C)NCC1(CO)SC(N)=NC1=O (configuration not stated) > 76.9 µM, O=C(COC(=O)c1ccccc1)NCc1ccco1 > 76.9 µM, CCn1c(C(O)c2cccc(OC)c2OC)nc2ccccc21 (configuration not stated) > 76.9 µM, CC(=O)NC1C(=O)N=C(SCC(=O)NCc2ccccc2)NC1=O (configuration not stated) > 76.9 µM, Cc1cc(C)cc(NC(=O)Cn2ncn3c(cc4ccccc43)c2=O)c1 > 76.9 µM, CCc1cccc(C)c1NC(=O)C1=C(C(=O)O)CCCC1 > 76.9 µM, CCOC(=O)CSc1nnc(CNC(=O)c2ccco2)n1-c1ccc(F)cc1 > 76.9 µM, O=C(CC1CCCCC1)Nc1c2c(nn1-c1ccc(F)cc1)CS(=O)(=O)C2 > 76.9 µM, CC1Cc2ccccc2N1C(=O)CSc1ncccc1C(=O)O (configuration not stated) > 76.9 µM, COc1ccc(C(=O)Nn2cc3c(c2-c2ccccc2)c(=O)n(C)c(=O)n3C)cc1 > 76.9 µM, CCN(CC)c1ccc2c(C)c(CN3CCOCC3)c(=O)oc2c1 > 76.9 µM, CC(C)(C)OC(=O)N1CCC[C@@H]1C(=O)N1CCC(C(=O)O)CC1 > 76.9 µM, O=C(O)c1ccc(CS(=O)c2cccc(C(F)(F)F)c2)o1 (configuration not stated) > 76.9 µM, O=C(c1cc(-c2ccco2)on1)N1CCc2ccccc2C1 > 76.9 µM, COC(=O)c1ccc(CSc2nc3ccccc3c(=O)n2Cc2ccco2)o1 > 76.9 µM, Cn1c(=O)[nH]c(=O)c2c1nc(NCc1ccco1)n2CCCc1ccccc1 > 76.9 µM, CCN1C(=O)CC(N2CCN(C(c3ccccc3)c3ccccc3)CC2)C1=O (configuration not stated) > 76.9 µM, COc1cc(S(=O)(=O)Nc2ccccc2C)ccc1Cl > 76.9 µM, c1ccc2[nH]c(CN3CCCCCC3)nc2c1 > 76.9 µM, CCOc1ccc(CCNC(=O)C2CCN(C(=O)N(C)C)CC2)cc1OCC > 76.9 µM, O=C(Nc1ccccc1)C1=C(O)CC(c2ccco2)CC1=Nc1ccccc1 (configuration not stated) > 76.9 µM, Cc1ccc(OCC2Cn3c(nc4c3c(=O)n(C)c(=O)n4C)O2)cc1 (configuration not stated) > 76.9 µM, CC12CCC(C(=O)n3c1nc1ccccc13)C2(C)C (configuration not stated) > 76.9 µM, O=C(COc1ncnc2ccccc12)NCc1ccc2c(c1)OCO2 > 76.9 µM, N#CC1=C2SCCN2C(=O)C(C#N)C12CCCCC2 (configuration not stated) > 76.9 µM, CSc1nsc(SC)c1NC(=O)OCc1ccccc1 > 76.9 µM, CC(C)NC(=O)NC(=O)COc1ncnc2sccc12 > 76.9 µM, O=C(Cc1cccs1)Nc1ccccc1C(=O)O > 76.9 µM, Clc1ccccc1CSc1ncccn1 > 76.9 µM, O=C1CCCc2nc(N3CCCCC3)sc21 > 76.9 µM, O=C(O)c1ccccc1C(=O)N1CC=C(c2ccccc2)CC1 > 76.9 µM, CC(C)Sc1nnc([C@H](C)NC(=O)OC(C)(C)C)o1 > 76.9 µM, CCCNS(=O)(=O)c1ccc(NC(=O)c2ccccn2)cc1 > 76.9 µM, COc1ccc(CN(Cc2ccccn2)S(=O)(=O)c2ccc(-n3cnnn3)c(OC)c2)cc1 > 76.9 µM, CCOc1ccc(N2CC(C(=O)Nc3ccc(S(=O)(=O)N4CCOCC4)cc3)CC2=O)cc1 (configuration not stated) > 76.9 µM, COC(=O)c1[nH]c2cccc(OC)c2c1NC(=O)CCN1CCC(C)CC1 > 76.9 µM, COc1ccc(COCC(O)CN2CCOCC2)cc1OC (configuration not stated) > 76.9 µM, CN1CC(=O)NC1=NC(=O)c1cc(F)c(F)cc1Cl > 76.9 µM, CC(Sc1nnnn1-c1ccccc1)C(=O)Nc1ccc(Cl)cn1 (configuration not stated) > 76.9 µM, CC1CCCCC1NC(=O)Cn1[nH]c(=O)c2ccccc2c1=O (configuration not stated) > 76.9 µM, CC1=C(C(=O)Nc2cccnc2)C(c2cccnc2)n2nc(-c3cccs3)nc2N1 (configuration not stated) > 76.9 µM, c1ccc(-c2nnc(-c3ccco3)n2-c2ccccc2)cc1 > 76.9 µM, O=C(Cc1c(F)cccc1Cl)NCC1CCCO1 (configuration not stated) > 76.9 µM, COc1cc(NC(=O)c2ccco2)ccc1NC(=O)c1ccccc1Cl > 76.9 µM, COc1ccc(N(Cc2cc(=O)[nH]c3ccccc23)C(=O)c2ccco2)cc1 > 76.9 µM, Cc1cccc(-c2nnc3sc(-c4ccccc4)nn23)c1 > 76.9 µM, CCCc1[nH]nc2c1C(c1ccccc1OC)C(C#N)=C(N)O2 (configuration not stated) > 76.9 µM, Cc1cc(-c2ccccc2)nc(=O)[nH]1 > 76.9 µM, COc1ccc(-n2nc(C(=O)Nc3ccc4c(c3)OCO4)c3ccccc3c2=O)c(OC)c1 > 76.9 µM, Cc1cccc(NC(=O)CSc2nnc([C@@H]3CCCN3C(=O)OC(C)(C)C)o2)c1C > 76.9 µM, CN(CCNC(=O)C1CCN(S(=O)(=O)N2CCOCC2)CC1)CCc1ccccc1 > 76.9 µM, Cn1c(=O)c2c(nc(N3CCCCCC3)n2CC(O)COc2ccc(Cl)cc2)n(C)c1=O (configuration not stated) > 76.9 µM, CC(C)(C)n1nnnc1C(c1cccs1)N1CCCC2(CCCCC2)C1 (configuration not stated) > 76.9 µM, Oc1ccccc1/C=N/c1c(-c2ccco2)nc2ccccn12 > 76.9 µM, COc1ccc(CCNc2nc(-c3ccco3)cc(C(F)(F)F)n2)cc1OC > 76.9 µM, COC(=O)/C=c1\sc2n(c1=O)C(C)=CC(C)(C)N=2 > 76.9 µM, COc1ccc2c(c1)cc(C(=O)O)n2C > 76.9 µM, Cc1cc(C)nc(/N=C2\NC(=O)CC3C(=O)NCCN23)n1 (configuration not stated) > 76.9 µM, CCOc1cc(C)c(Cl)cc1S(=O)(=O)n1cnc2ccccc21 > 76.9 µM, Cc1c(C(=O)N2CCCc3ccccc32)oc2ccc(S(=O)(=O)N3CCOCC3)cc12 > 76.9 µM, O=C(Cc1c(F)cccc1Cl)Nc1ccncc1 > 76.9 µM, CC(C)(CO)NC(=O)C(c1ccccc1)c1ccccc1 > 76.9 µM, Cc1ccc(-c2nnc(SCC(=O)Nc3ccccc3N3CCOCC3)o2)cc1 > 76.9 µM, O=C(NCC1CCCO1)C1c2ccccc2C(=O)N1C1CCCCCCC1 (configuration not stated) > 76.9 µM, O=C(Oc1ccccc1)c1cccc2cccnc12 > 76.9 µM, COc1ccc(CC(=O)NCc2ccccn2)cc1OC > 76.9 µM, CCC1CCCCN1C(=O)COC(=O)c1ccc(S(=O)(=O)N2CCOCC2)cc1 (configuration not stated) > 76.9 µM, CC(NC(=O)c1ccco1)C(c1cccs1)N1CCN(c2ccc(F)cc2)CC1 (configuration not stated) > 76.9 µM, Cc1cc(C)n(-c2ccc(C(=O)Nc3ccc(S(=O)(=O)NCc4ccco4)cc3)cc2)n1, CCOC(=O)N1CCC(N(C(=O)Nc2cccc(OC)c2)C(C)CC)CC1 (configuration not stated) > 76.9 µM
